PMC4593227, “Biochemical effects of mutations in the gene encoding the alpha subunit of eukaryotic initiation factor (eIF) 2B associated with Vanishing White Matter disease” (BMC Medical Genetics, 2015)

T1: His6-myc-tagged Tyr275Cys eIF2Bα (human, UniProt Q14232 1-305, Tyr275Cys)
T1 construct: eIF2Bα encoded by EIF2B1 with the VWM patient mutation Tyr275Cys; residue numbers start with the first methionine of GenBank AAI03764; also called p.Tyr275Cys; source: HEK293, transfected (calcium phosphate), in lysate
T1 sequence: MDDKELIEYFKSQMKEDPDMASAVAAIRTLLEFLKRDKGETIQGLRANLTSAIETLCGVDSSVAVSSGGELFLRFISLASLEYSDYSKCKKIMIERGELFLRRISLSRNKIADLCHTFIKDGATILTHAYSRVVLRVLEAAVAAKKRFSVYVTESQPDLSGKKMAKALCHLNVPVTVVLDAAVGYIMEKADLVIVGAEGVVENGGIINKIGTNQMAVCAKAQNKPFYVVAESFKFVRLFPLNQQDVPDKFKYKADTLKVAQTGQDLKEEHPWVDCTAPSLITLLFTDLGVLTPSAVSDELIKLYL

T2: His6-myc-tagged Val183Phe eIF2Bα (human, UniProt Q14232 1-305, Val183Phe)
T2 construct: eIF2Bα encoded by EIF2B1 with the VWM patient mutation Val183Phe; residue numbers start with the first methionine of GenBank AAI03764; also called p.Val183Phe; source: HEK293, transfected (calcium phosphate), in lysate
T2 sequence: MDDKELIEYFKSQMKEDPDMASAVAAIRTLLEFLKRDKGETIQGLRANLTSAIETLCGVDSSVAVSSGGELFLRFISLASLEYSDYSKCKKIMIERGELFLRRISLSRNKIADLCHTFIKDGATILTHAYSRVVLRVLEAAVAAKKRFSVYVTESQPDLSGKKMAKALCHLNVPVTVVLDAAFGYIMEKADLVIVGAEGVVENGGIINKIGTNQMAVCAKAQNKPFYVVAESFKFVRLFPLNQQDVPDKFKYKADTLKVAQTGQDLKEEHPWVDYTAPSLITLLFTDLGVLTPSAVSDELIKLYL


What was measured:
[1] = molecular target: T1, His6-myc-tagged Tyr275Cys eIF2Bα; assay: pull-down; His6-myc-eIF2Bα (WT or mutant) co-expressed with myc-tagged eIF2B subunits in HEK293; ~200 μg lysate on Ni2+-NTA agarose, 1 h at 4 °C, lysis buffer (20 mM Hepes-KOH pH 7.6, 50 mM KCl, 0.5 % Triton X-100) with 20 mM imidazole; bound material blotted for myc tag, total and phospho-eIF2α; settings: partners not purified
[2] = molecular target: T2, His6-myc-tagged Val183Phe eIF2Bα; assay: as above; settings: partners not purified
[3] = molecular target: T2, His6-myc-tagged Val183Phe eIF2Bα; assay: cell-based or functional assay

Binder | reduction in binding relative to WT [1] [%] | reduction in binding relative to WT [2] [%] | decrease in eIF2B GEF activity of complexes containing Val183Phe eIF2Bα, relative to WT (100 %) [3] [%]
myc-tagged eIF2Bδ (natural protein, eIF2Bδ, delta subunit of eukaryotic initiation factor 2B, encoded by EIF2B4; one of 'the other subunits of the eIF2B complex'; source: HEK293, transfected (calcium phosphate), in lysate) not shown | ~50 | ~50 | ~30
myc-tagged eIF2Bε (natural protein, eIF2Bε, epsilon subunit of eukaryotic initiation factor 2B, encoded by EIF2B5; one of 'the other subunits of the eIF2B complex'; also called catalytic ε-subunit; source: HEK293, transfected (calcium phosphate), in lysate) MAAPVVAPPGVVVSRANKRSGAGPGGSGGGGARGAEEEPPPPLQAVLVADSFDRRFFPISKDQPRVLLPLANVALIDYTLEFLTATGVQETFVFCCWKAAQIKEHLLKSKWCRPTSLNVVRIITSELYRSLGDVLRDVDAKALVRSDFLLVYGDVISNINITRALEEHRLRRKLEKNVSVMTMIFKESSPSHPTRCHEDNVVVAVDSTTNRVLHFQKTQGLRRFAFPLSLFQGSSDGVEVRYDLLDCHISICSPQVAQLFTDNFDYQTRDDFVR[no letters for about 20 residues]VSNLHMYSAVCADVIRRWVYPLTPEANFTDSTTQSCTHSRHNIYRGPEVSLGHGSILEENVLLGSGTVIGSNCFITNSVIGPGCHIGDNVVLDQTYLWQGVRVAAGAQIHQSLLCDNAEVKERVTLKPRSVLTSQVVVGPNITLPEGSVISLHPPDAEEDEDDGEFSDDSGADQEKDKVKMKGYNPAEVGAAGKGYLWKAAGMNMEEEEELQQNLWGLKINMEEESESESEQSMDSEEPDSRGGSPQMDDIKVFQNEVLGTLQRGKEENISCDNLVLEINSLKYAYNISLKEVMQVLSHVVLEFPLQQMDSPLDSSRYCALLLPLLKAWSPVFRNYIKRAADHLEALAAIEDFFLEHEALGISMAKVLMAFYQLEILAEETILSWFSQRDTTDKGQQLRKNQQLQRFIQWLKEAEEESSEDD | ~50 | ~50 | ~30
